From the RNAGym collection of RNA variant scans (doi:10.7554/elife.90254)
Read counts are not given, so values of variants with three or more changes are uncertain.

B1: LINE1-mini (parent)
chain: GGCAGAGCUCAACACAGCGUGGCAAAGUGGCUGUGGCUAGACUGCC

Variants of: B1
Experiment: self-cleavage, relative activity (ratio to wild type); higher = more cleavage; in vitro, sequencing; the parent is a self-cleaving ribozyme
Variant C13A A25G U28G G44A has a self-cleavage of 0.02.
C13A G19U A25U G30U showed a self-cleavage of 0.13.
C13G C23A G29U G36U showed a self-cleavage of 0.18.
C13A G27U A41C gave a self-cleavage of 0.08.
C13A C15G G35C gave a self-cleavage of 0.09.
C13A G30A U32G C42G showed a self-cleavage of 0.02.
Variant C13A G21U C23U G33U U34C has a self-cleavage of 0.34.
With C13A G22A G29U the self-cleavage was 2.22.
Variant C13A C23G C45A has a self-cleavage of 0.2.
C13G C31A A41G C42A showed a self-cleavage of 0.2.
C13G C18G G22A A39G showed a self-cleavage of 0.02.
C13A G21A A26U G30U C45G showed a self-cleavage of 0.07.
In the case of C13G C31U A39C, the self-cleavage is reported as 0.03.
In the case of C13A G36U U43C, the self-cleavage is reported as 0.02.
In the case of C13A C45A C46G, the self-cleavage is reported as 0.07.
C13A U38C C46A showed a self-cleavage of 0.07.
C13A A25G G35C C45A showed a self-cleavage of 0.01.
Variant C13A G22A G27A U28C U34C has a self-cleavage of 0.17.
C13A G22C C46U showed a self-cleavage of 0.09.
In the case of C13A C31A C42A, the self-cleavage is reported as 0.02.
C13G C23A A26U G27C U28A C42A showed a self-cleavage of 0.04.
C13A G30U G35U A39G gave a self-cleavage of 0.01.
C13G A14U A26U G40C C42U gave a self-cleavage of 0.05.
Work on C13G A26C U28G U32G G36U A41G yielded a self-cleavage of 0.08.
C13G C18U U28G G30C G33U C46U showed a self-cleavage of 0.03.
In the case of C13A G17U C18U, the self-cleavage is reported as 0.05.
With C13A G30A C31G the self-cleavage was 0.03.
Variant C13G A16U A26G has a self-cleavage of 0.06.
For C13G G17A G21U A26G G44A, the self-cleavage was 0.07.
Work on C13A A25U G30U yielded a self-cleavage of 0.06.
C13G C15A A16C G17A C18G U38A gave a self-cleavage of 0.14.
For C13A G19A G21A G29C, the self-cleavage was 0.06.
In the case of C13A C23U G27C U28A, the self-cleavage is reported as 0.03.
C13A G40C G44U showed a self-cleavage of 0.14.
In the case of C13A G22U U28C G29A G44A, the self-cleavage is reported as 0.11.
Work on C13A C15G U20C G33C C46G yielded a self-cleavage of 0.01.
C13A A24U C37U showed a self-cleavage of 0.23.
Work on C13A C15G G44A yielded a self-cleavage of 0.01.
In the case of C13G C18U A26U C31G C46U, the self-cleavage is reported as 0.01.
Variant C13G A26C U34A G35U has a self-cleavage of 0.14.
Work on C13G A24U A39G C45G yielded a self-cleavage of 0.07.
In the case of C13A G36A C42U, the self-cleavage is reported as 0.04.
In the case of C13A U32A C37U, the self-cleavage is reported as 0.09.
For C13A G35C C42U, the self-cleavage was 0.02.
With C13G C15G A24C G27C the self-cleavage was 0.02.
For C13A G17U G40U A41U, the self-cleavage was 0.44.
With C13A G21U A26C G35U the self-cleavage was 0.18.
C13A C23G G29A U38C gave a self-cleavage of 0.07.
For C13G A14C G22A, the self-cleavage was 0.02.
Work on C13A A26U G30U G33C C46A yielded a self-cleavage of 0.06.
C13A A24U G30U showed a self-cleavage of 0.
In the case of C13A C23G U34C, the self-cleavage is reported as 0.07.
In the case of C13A A16U U28A G29U G44C, the self-cleavage is reported as 0.1.
In the case of C13A G19C G21C A25G C31G, the self-cleavage is reported as 0.02.
Variant C13A C15G G21U G44U has a self-cleavage of 0.01.
Work on C13A C18U G30A G35C U43A yielded a self-cleavage of 0.11.
C13G A14G G22A C23U G35A showed a self-cleavage of 0.04.
C13A G21U U32A A39U showed a self-cleavage of 0.01.
C13A C18A G21A C31A showed a self-cleavage of 0.01.
Variant C13G C31A A39G has a self-cleavage of 0.02.
C13A G22A G35C showed a self-cleavage of 0.12.
C13A G40A U43C gave a self-cleavage of 0.08.
In the case of C13G A25C G29U G36A, the self-cleavage is reported as 0.
In the case of C13G C18A U43G, the self-cleavage is reported as 0.01.
With C13G C31U G40C C46U the self-cleavage was 0.01.
C13A C15A C18U U32A gave a self-cleavage of 0.03.
For C13G C31A G44A, the self-cleavage was 0.31.
Work on C13A C18U G33U yielded a self-cleavage of 0.06.
C13A C23G A24C G36A showed a self-cleavage of 0.22.
C13A G29U A39C gave a self-cleavage of 0.02.
Variant C13A G22U G35C has a self-cleavage of 0.06.
With C13A G30U A39G the self-cleavage was 0.02.
Work on C13A C15U A26G C31G C37G yielded a self-cleavage of 0.06.
In the case of C13G C18G C23G G35U, the self-cleavage is reported as 0.24.
For C13A A24C G29U G35U G44A, the self-cleavage was 0.29.
For C13A G36A U38C, the self-cleavage was 0.02.
Variant C13A G22U A26U has a self-cleavage of 0.06.
Variant C13A C15A G40A has a self-cleavage of 0.22.
C13G C15A G35A C46A showed a self-cleavage of 0.12.
Variant C13G A16U G21C U32A C45U has a self-cleavage of 0.03.
C13A G33C C37U U38G gave a self-cleavage of 0.01.
For C13A G19U G30A, the self-cleavage was 0.09.
Variant C13G G17C A25U has a self-cleavage of 0.04.
With C13A G19A G29C G35A the self-cleavage was 0.19.
Work on C13G C23U A25C G30U yielded a self-cleavage of 0.03.
C13A C15A G29C G36A gave a self-cleavage of 0.05.
C13A A26G U43G C45A showed a self-cleavage of 0.05.
For C13A A26U C31A C46U, the self-cleavage was 0.62.
With C13G A24C A26G G27U U32A G33A the self-cleavage was 0.02.
With C13A G30C U38C A39C the self-cleavage was 0.12.
Work on C13A U32G G40U A41U yielded a self-cleavage of 0.14.
C13G C37G U43A gave a self-cleavage of 0.01.
Variant C13G A25U U43G has a self-cleavage of 0.
C13A A26C U32G U43A showed a self-cleavage of 0.07.
Work on C13A G22A C42A C46G yielded a self-cleavage of 0.08.
For C13A C18G C23A G35C C37U, the self-cleavage was 0.15.
Variant C13G C15A G19A G33A has a self-cleavage of 0.07.
C13G G17A G22C G36C showed a self-cleavage of 0.03.
Work on C13G A14G G29C G36A C45A yielded a self-cleavage of 0.06.
For C13A G21U C23G, the self-cleavage was 0.09.
C13A C18A G19C gave a self-cleavage of 0.07.
Work on C13G A14G U20C G22A C31A yielded a self-cleavage of 0.01.
Work on C13A C18U G19U G21U C37A yielded a self-cleavage of 0.03.
C13A G27C C37A showed a self-cleavage of 0.02.
In the case of C13A G27C G30A U34C G36U, the self-cleavage is reported as 0.05.
C13A A26C G33A gave a self-cleavage of 0.05.
Work on C13G A25U U38G yielded a self-cleavage of 0.01.
Variant C13A G22A G40U has a self-cleavage of 0.02.
In the case of C13A G30A C46A, the self-cleavage is reported as 0.05.
With C13A G22C C37G A41C U43A the self-cleavage was 0.01.
C13A G30U U32A gave a self-cleavage of 0.03.
Work on C13A C15U C18G G33A yielded a self-cleavage of 0.02.
Work on C13G C31A C37G C42A yielded a self-cleavage of 0.02.
Work on C13A C18A G19C A39C yielded a self-cleavage of 0.17.
Work on C13A A24C C46U yielded a self-cleavage of 0.01.
C13A C15U C23G C42A showed a self-cleavage of 0.04.
Work on C13A U32C A41U yielded a self-cleavage of 0.16.
Variant C13A G19A G21U G29C has a self-cleavage of 0.07.
In the case of C13A A24C U32C G40C A41C, the self-cleavage is reported as 0.
With C13A G19A C31G U34A the self-cleavage was 0.02.
C13A G29C C37U showed a self-cleavage of 0.03.
Work on C13A C31A U38A G40C yielded a self-cleavage of 0.04.
Work on C13G A14U G19U yielded a self-cleavage of 0.06.
C13G A24U G40C showed a self-cleavage of 0.01.
Work on C13A U32A G36A yielded a self-cleavage of 0.04.
For C13G C15A G17U A24C C46A, the self-cleavage was 0.08.
Variant C13A G17U G19A C23G G36C U38G has a self-cleavage of 0.03.
Work on C13A G19C C46G yielded a self-cleavage of 0.04.
With C13A C31U A39G the self-cleavage was 0.
C13A U28A C31A U34A showed a self-cleavage of 0.14.
C13A A26G C37A gave a self-cleavage of 0.02.
In the case of C13A C18G G19A G30A, the self-cleavage is reported as 0.14.
C13G C37U C46U showed a self-cleavage of 0.18.
Work on C13A C15U G27U G36U yielded a self-cleavage of 0.05.
C13A G17A G22U G33A gave a self-cleavage of 0.02.
In the case of C13A A25G U34G, the self-cleavage is reported as 0.03.
Work on C13G A24G C31U C46A yielded a self-cleavage of 0.05.
C13G A41G G44U gave a self-cleavage of 0.06.
In the case of C13A G19U U20A A24G, the self-cleavage is reported as 0.1.
With C13G C18G G21A G27U A41U C46A the self-cleavage was 0.12.
C13A C23A A24U gave a self-cleavage of 0.02.
With C13G C23U C37A the self-cleavage was 0.11.
In the case of C13A G17U U20A G27A, the self-cleavage is reported as 0.05.
Variant C13G C23U G36U has a self-cleavage of 0.09.
C13A G29C U43A showed a self-cleavage of 0.1.
C13G A26U G30U gave a self-cleavage of 0.06.
In the case of C13A G17C U32A C45U, the self-cleavage is reported as 0.16.
Variant C13G A14C G17C C37G C46U has a self-cleavage of 0.
Variant C13A G33U U38G U43C has a self-cleavage of 0.04.
C13A C18U G19A showed a self-cleavage of 0.11.
C13A A39G U43C C45G showed a self-cleavage of 0.08.
Variant C13A A25U C42G C46U has a self-cleavage of 0.09.
Variant C13A C15A A16G A26G G27C has a self-cleavage of 0.1.
C13A G27A U32C G35C G36A showed a self-cleavage of 0.08.
In the case of C13G C23G C31A C37U A39G, the self-cleavage is reported as 0.01.
For C13G A26C G35A G44A, the self-cleavage was 0.02.
C13A G36A C37U C45U gave a self-cleavage of 0.08.
In the case of C13A A41U U43G, the self-cleavage is reported as 0.18.
For C13A U20G C37G, the self-cleavage was 0.01.
Variant C13A C15G A25U U32G G33A A39C has a self-cleavage of 0.01.
Work on C13A G19C C37A yielded a self-cleavage of 0.01.
C13A C18U G19C G29U G30U showed a self-cleavage of 0.5.
C13A A24U U28A G29C A41U G44C showed a self-cleavage of 0.02.
C13A U32A G40C gave a self-cleavage of 0.1.
C13A G27A A39C gave a self-cleavage of 0.13.
C13A A24G G29U C45G showed a self-cleavage of 0.14.
C13A C18A A25G G36C gave a self-cleavage of 0.02.
